Changes are numbered by the printed parent chain; changes in the protein carry UniProt numbers. Some of the results follow.
Experiments:
[1] = target: T1, RBFOX1 RRM (Homo sapiens) (UniProt Q9NWB1); experiment: EMSA; details: HiTS-Eq, 1 nM pool, 10 min; buffer printed only for the single-RNA assays: 10 mM Tris pH 7.5, 150 mM NaCl, 3.4 mM EDTA, 0.001% NP-40, 30 C
T1 sequence: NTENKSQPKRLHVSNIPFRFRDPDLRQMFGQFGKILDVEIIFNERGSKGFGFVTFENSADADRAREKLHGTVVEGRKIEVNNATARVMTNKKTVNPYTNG

[2] = target: T2, RBFOX1 RRM RbFoxmut (Fox-RRM*) R118D + E147R + N151S + E152T (Homo sapiens) (UniProt Q9NWB1); experiment: EMSA; details: HiTS-Eq, 1 nM pool, 10 min; buffer printed only for the single-RNA assays: 10 mM Tris pH 7.5, 150 mM NaCl, 3.4 mM EDTA, 0.001% NP-40, 30 C
T2 sequence: T1 sequence with R10D, E39R, N43S, E44T

Row | Sequence | binding signal (KA relative to UGCAUGU) [1] | binding signal (KA relative to UGCAUGU) [2]
1 | GGGAGACCGGAAUUCAGAUUGUCCCAUAUCAUUAAAUCCCGUCGUAGCCACCA / CAATCTGAATTCCGGTCTCCC / TGGTGGCTACGACGGGATT | 0.00246 | 0.0578
2 | GGGAGACCGGAAUUCAGAUUGUCCGCUAUCAUUAAAUCCCGUCGUAGCCACCA / CAATCTGAATTCCGGTCTCCC / TGGTGGCTACGACGGGATT | 0.00412 | 0.115
3 | GGGAGACCGGAAUUCAGAUUGUCCGGCUCCCUUAAAUCCCGUCGUAGCCACCA / CAATCTGAATTCCGGTCTCCC / TGGTGGCTACGACGGGATT | 0.0973 | 0.058
4 | GGGAGACCGGAAUUCAGAUUGUCCCGUAUCAUUAAAUCCCGUCGUAGCCACCA / CAATCTGAATTCCGGTCTCCC / TGGTGGCTACGACGGGATT | 0.000239 | 0.103
5 | GGGAGACCGGAAUUCAGAUUGUCCGCCAUCAUUAAAUCCCGUCGUAGCCACCA / CAATCTGAATTCCGGTCTCCC / TGGTGGCTACGACGGGATT | 0.00482 | 0.102
6 | GGGAGACCGGAAUUCAGAUUGUCCCCCAAUAUUAAAUCCCGUCGUAGCCACCA / CAATCTGAATTCCGGTCTCCC / TGGTGGCTACGACGGGATT | 0.00186 | 
7 | GGGAGACCGGAAUUCAGAUUGUCCCACUCCCUUAAAUCCCGUCGUAGCCACCA / CAATCTGAATTCCGGTCTCCC / TGGTGGCTACGACGGGATT | 0.00424 | 
8 | GGGAGACCGGAAUUCAGAUUGUCCGGUCCCCUUAAAUCCCGUCGUAGCCACCA / CAATCTGAATTCCGGTCTCCC / TGGTGGCTACGACGGGATT | 0.00415 | 0.0622
9 | GGGAGACCGGAAUUCAGAUUGUCCCUCCCGAUUAAAUCCCGUCGUAGCCACCA / CAATCTGAATTCCGGTCTCCC / TGGTGGCTACGACGGGATT | 0.00227 | 
10 | GGGAGACCGGAAUUCAGAUUGUCCGGUCUCUUUAAAUCCCGUCGUAGCCACCA / CAATCTGAATTCCGGTCTCCC / TGGTGGCTACGACGGGATT | 0.0446 | 0.0768
11 | GGGAGACCGGAAUUCAGAUUGUCCGGUAUCAUUAAAUCCCGUCGUAGCCACCA / CAATCTGAATTCCGGTCTCCC / TGGTGGCTACGACGGGATT | 0.0241 | 0.254
12 | GGGAGACCGGAAUUCAGAUUGUCCUCCCAACUUAAAUCCCGUCGUAGCCACCA / CAATCTGAATTCCGGTCTCCC / TGGTGGCTACGACGGGATT | 0.0025 | 
13 | GGGAGACCGGAAUUCAGAUUGUCCGGCCCCCUUAAAUCCCGUCGUAGCCACCA / CAATCTGAATTCCGGTCTCCC / TGGTGGCTACGACGGGATT | 0.00542 | 0.00732
14 | GGGAGACCGGAAUUCAGAUUGUCCUGUAUCAUUAAAUCCCGUCGUAGCCACCA / CAATCTGAATTCCGGTCTCCC / TGGTGGCTACGACGGGATT | 0.00179 | 0.298
15 | GGGAGACCGGAAUUCAGAUUGUCCGGUUUCCUUAAAUCCCGUCGUAGCCACCA / CAATCTGAATTCCGGTCTCCC / TGGTGGCTACGACGGGATT | 0.0295 | 0.172
16 | GGGAGACCGGAAUUCAGAUUGUCCGGUACCCUUAAAUCCCGUCGUAGCCACCA / CAATCTGAATTCCGGTCTCCC / TGGTGGCTACGACGGGATT | 0.0171 | 
17 | GGGAGACCGGAAUUCAGAUUGUCCGGUCUUCUUAAAUCCCGUCGUAGCCACCA / CAATCTGAATTCCGGTCTCCC / TGGTGGCTACGACGGGATT | 0.0144 | 0.233
18 | GGGAGACCGGAAUUCAGAUUGUCCAGUAUCAUUAAAUCCCGUCGUAGCCACCA / CAATCTGAATTCCGGTCTCCC / TGGTGGCTACGACGGGATT | 0.0107 | 0.106
19 | GGGAGACCGGAAUUCAGAUUGUCCCGAAUCAUUAAAUCCCGUCGUAGCCACCA / CAATCTGAATTCCGGTCTCCC / TGGTGGCTACGACGGGATT |  | 0.116
20 | GGGAGACCGGAAUUCAGAUUGUCCCCCAACGUUAAAUCCCGUCGUAGCCACCA / CAATCTGAATTCCGGTCTCCC / TGGTGGCTACGACGGGATT | 0.00248 | 

Row | Sequence | binding signal (KA relative to UGCAUGU) [1] | binding signal (KA relative to UGCAUGU) [2]
21 | GGGAGACCGGAAUUCAGAUUGUCCGGUCUCAUUAAAUCCCGUCGUAGCCACCA / CAATCTGAATTCCGGTCTCCC / TGGTGGCTACGACGGGATT | 0.0132 | 0.107
22 | GGGAGACCGGAAUUCAGAUUGUCCGCGAUCAUUAAAUCCCGUCGUAGCCACCA / CAATCTGAATTCCGGTCTCCC / TGGTGGCTACGACGGGATT | 0.00743 | 0.147
23 | GGGAGACCGGAAUUCAGAUUGUCCCUUAUCAUUAAAUCCCGUCGUAGCCACCA / CAATCTGAATTCCGGTCTCCC / TGGTGGCTACGACGGGATT | 0.00242 | 0.111
24 | GGGAGACCGGAAUUCAGAUUGUCCCGUUUCAUUAAAUCCCGUCGUAGCCACCA / CAATCTGAATTCCGGTCTCCC / TGGTGGCTACGACGGGATT | 0.00263 | 0.0694
25 | GGGAGACCGGAAUUCAGAUUGUCCCGUAUCCUUAAAUCCCGUCGUAGCCACCA / CAATCTGAATTCCGGTCTCCC / TGGTGGCTACGACGGGATT | 0.00751 | 0.208
26 | GGGAGACCGGAAUUCAGAUUGUCCGGCCUCCUUAAAUCCCGUCGUAGCCACCA / CAATCTGAATTCCGGTCTCCC / TGGTGGCTACGACGGGATT | 0.0295 | 0.0302
27 | GGGAGACCGGAAUUCAGAUUGUCCGGACUCCUUAAAUCCCGUCGUAGCCACCA / CAATCTGAATTCCGGTCTCCC / TGGTGGCTACGACGGGATT | 0.00542 | 0.116
28 | GGGAGACCGGAAUUCAGAUUGUCCCCCUAUCUUAAAUCCCGUCGUAGCCACCA / CAATCTGAATTCCGGTCTCCC / TGGTGGCTACGACGGGATT | 0.00304 | 
29 | GGGAGACCGGAAUUCAGAUUGUCCCCUAUCAUUAAAUCCCGUCGUAGCCACCA / CAATCTGAATTCCGGTCTCCC / TGGTGGCTACGACGGGATT | 0.00204 | 0.151
30 | GGGAGACCGGAAUUCAGAUUGUCCGAUCUCCUUAAAUCCCGUCGUAGCCACCA / CAATCTGAATTCCGGTCTCCC / TGGTGGCTACGACGGGATT | 0.0201 | 0.0833
31 | GGGAGACCGGAAUUCAGAUUGUCCCGUCUCAUUAAAUCCCGUCGUAGCCACCA / CAATCTGAATTCCGGTCTCCC / TGGTGGCTACGACGGGATT | 0.00727 | 0.114
32 | GGGAGACCGGAAUUCAGAUUGUCCCGUACCAUUAAAUCCCGUCGUAGCCACCA / CAATCTGAATTCCGGTCTCCC / TGGTGGCTACGACGGGATT | 0.0164 | 0.156
33 | GGGAGACCGGAAUUCAGAUUGUCCGGCCACCUUAAAUCCCGUCGUAGCCACCA / CAATCTGAATTCCGGTCTCCC / TGGTGGCTACGACGGGATT | 0.003 | 
34 | GGGAGACCGGAAUUCAGAUUGUCCCCGAUCAUUAAAUCCCGUCGUAGCCACCA / CAATCTGAATTCCGGTCTCCC / TGGTGGCTACGACGGGATT | 0.0107 | 0.0377
35 | GGGAGACCGGAAUUCAGAUUGUCCGGUCUCCUUAAAUCCCGUCGUAGCCACCA / CAATCTGAATTCCGGTCTCCC / TGGTGGCTACGACGGGATT | 0.497 | 0.0247
36 | GGGAGACCGGAAUUCAGAUUGUCCGUCUCCCUUAAAUCCCGUCGUAGCCACCA / CAATCTGAATTCCGGTCTCCC / TGGTGGCTACGACGGGATT | 0.0532 | 0.137
37 | GGGAGACCGGAAUUCAGAUUGUCCCCCCCUCUUAAAUCCCGUCGUAGCCACCA / CAATCTGAATTCCGGTCTCCC / TGGTGGCTACGACGGGATT | 0.00857 | 
38 | GGGAGACCGGAAUUCAGAUUGUCCCGCAUCAUUAAAUCCCGUCGUAGCCACCA / CAATCTGAATTCCGGTCTCCC / TGGTGGCTACGACGGGATT | 0.0136 | 0.166
39 | GGGAGACCGGAAUUCAGAUUGUCCCGCCUCAUUAAAUCCCGUCGUAGCCACCA / CAATCTGAATTCCGGTCTCCC / TGGTGGCTACGACGGGATT | 0.00495 | 0.0711
